Reference: paper PMC9935832, “Calcium-dependent protein kinase CDPK16 phosphorylates serine-856 of glutamate receptor-like GLR3.6 protein leading to salt-responsive root growth in Arabidopsis^#” (Frontiers in Plant Science, 2023)
Numbering of substitutions follows the chain as printed. Numbers in names are those of the source. No constants are given. Whether binding was seen depends on the method and setting. For some assays here: In cells and extracts the contact can be indirect. Some results given as binding are weak or reduced against the parent protein; the word gives no strength. Sequences can lack the tags named with a protein. One block for each binder: values may come before it.

How the values were obtained:
[1] = target: T1, GLR3.6-YFP^N (Arabidopsis) (UniProt Q84W41); assay: split reporter; BiFC analysis of Supplementary Figure S4; host and constructs not given
T1 sequence: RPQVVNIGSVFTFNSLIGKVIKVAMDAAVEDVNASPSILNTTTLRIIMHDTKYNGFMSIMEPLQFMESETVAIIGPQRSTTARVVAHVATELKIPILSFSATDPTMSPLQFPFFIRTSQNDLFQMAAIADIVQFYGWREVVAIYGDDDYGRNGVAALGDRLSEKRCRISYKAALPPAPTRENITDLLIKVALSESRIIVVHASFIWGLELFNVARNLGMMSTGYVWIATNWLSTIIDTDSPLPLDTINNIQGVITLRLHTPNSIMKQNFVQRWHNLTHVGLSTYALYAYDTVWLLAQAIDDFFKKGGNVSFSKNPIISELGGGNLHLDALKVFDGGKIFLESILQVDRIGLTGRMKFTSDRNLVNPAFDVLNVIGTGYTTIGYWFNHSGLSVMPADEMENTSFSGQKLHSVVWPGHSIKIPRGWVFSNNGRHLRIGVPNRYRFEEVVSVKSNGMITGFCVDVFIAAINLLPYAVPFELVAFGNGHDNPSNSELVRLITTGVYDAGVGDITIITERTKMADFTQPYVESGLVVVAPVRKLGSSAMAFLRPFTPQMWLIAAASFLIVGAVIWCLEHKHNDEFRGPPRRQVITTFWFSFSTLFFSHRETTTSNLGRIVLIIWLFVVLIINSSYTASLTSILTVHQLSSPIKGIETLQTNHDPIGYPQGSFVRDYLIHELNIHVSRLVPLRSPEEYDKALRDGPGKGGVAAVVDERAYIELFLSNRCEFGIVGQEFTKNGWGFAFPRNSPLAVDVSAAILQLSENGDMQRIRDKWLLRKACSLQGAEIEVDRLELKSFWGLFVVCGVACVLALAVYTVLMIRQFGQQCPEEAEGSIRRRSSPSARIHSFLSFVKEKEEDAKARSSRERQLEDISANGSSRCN

[2] = target: T2, 14-3-3ω-YFP^C (Arabidopsis) (UniProt Q01525); assay: split reporter; BiFC in Arabidopsis protoplasts transfected with 10-20 μg plasmid DNA, 16-24 h at 22°C; reconstituted YFP seen by confocal microscopy
T2 sequence: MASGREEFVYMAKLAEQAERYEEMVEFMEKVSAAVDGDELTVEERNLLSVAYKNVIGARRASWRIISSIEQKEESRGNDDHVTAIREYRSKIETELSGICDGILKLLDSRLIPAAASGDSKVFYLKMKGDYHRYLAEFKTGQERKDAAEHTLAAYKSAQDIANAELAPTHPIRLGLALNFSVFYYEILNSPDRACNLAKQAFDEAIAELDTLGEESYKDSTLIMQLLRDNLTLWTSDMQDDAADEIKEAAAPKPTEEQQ

[3] = target: T2, 14-3-3ω-YFP^C (Arabidopsis); assay: split reporter; BiFC in tobacco (Nicotiana benthamiana) leaf cells after agroinfiltration, 2-3 days at 22-24°C; YFP^N and YFP^C fusions; reconstituted YFP seen by confocal microscopy; PIP2a-mCherry as plasma membrane marker
6xHis-14-3-3ω = target: T3, 6xHis-14-3-3ω (Arabidopsis, UniProt Q01525 1-259); assay: pull-down; 6xHis-14-3-3ω and GST-fused GLR3.6 peptides (50 μg each) mixed with Ni-NTA agarose, 4°C, 2 h; western blot with α-His and α-GST; both purified
T3 construct: End of the His tag read from the printed name 6xHis-14-3-3ω; Vector map in Appendix 1B; construct as in Chen et al. (2018); also called recombinant 6xHis-14-3-3ω; source: E. coli BL21, purified (Ni-NTA agarose); not shown: 6xHis, N-terminal, kept
T3 sequence (looked up): T2 sequence

binding [1]: binds
B1: GLR3.7 (BiFC fusion) (protein, UniProt Q9SDQ4 26-921)
chain: QRPQLVNIGAVFAFDSVIGRAAKVALEAAVSDVNNDKSFLKETELRLLMEDSACNVFRGSFGAFELLEKEVVAMIGPISSSVAHTISDIAKGLHFPLVSFAATDPTLSALQFPFFLRTTPNDAHQMSALVDLINFYGWKEVISVYSDDELGRNGVSALDDELYKKRSRISYKVPLSVHSDEKFLTNALNKSKSIGPRVYILHFGPDPLLRIFDIAQKLQMMTHEYVWLATDWLSVTLDSLSDKGTLKRLEGVVGLRQHIPESVKMEHFTHKLQSNRSMNAYALHAYDTVWMIAHGIEELLNEGINITFSYSEKLLHARGTKLHLEKIKFFNSGELLLEKLLKVNFTGIAGQVQFGSGRNVIGCDYEIINVNKTDVHTVGFWSKNGGFSVVAPKTRHSQKKTSFVSDEKLGDITWPGGGREKPRGWVIADSADPLKIVVPRRVSFVEFVTEEKNSSHRIQGFCIDVFIEALKFVPYSVPYIFEPFGNGHSSPNYNHLIQMVTDGVYDAAVGDIAIVPSRSKLVDFSQPYASTGLVVVIPANDDNATWIFLRPFTSRLWCVVLVSFLVIAVVIWILEHRINEDFRGPPRRQLSTMLLFSFSTLFKRNQEDTISNLARLVMIVWLFLLMVLTASYTANLTSILTVQQLPSAITGIDSLRASEVPIGYQAGTFTLEYLTYSLGMARSRLVPLDSTEEYEKALKLGPTNWGGVAAIVDELPYIELFLAERTGFKIVGEPFMHRGWGFAFKRDSPLAIDMSTAILKLSETRKLQEIRKKWLCKTNCAGKSNWNPEPNQLHLKSFKGLYLVCIAITVSAFLVFVLRMIRQFVRYRRMERTSSMPRASWSASPTLRLRELVFDFVEFVDEKEEAIKRMFRRSDDSNNNPSHVGEVQADTEVPRN

binding [3]: binds
B3: GLR3.6-S861A-YFP^N (protein, UniProt Q84W41 26-903)
chain: T1 sequence with S836A

binding [2]: binds | binding [3]: binds
B5: GLR3.6-S856A-YFP^N (protein, UniProt Q84W41 26-903)
chain: T1 sequence with S831A

binding (6xHis-14-3-3ω): no binding (tested: 50 μg each)
Binder: EGSIRRRAAPSA (peptide, UniProt Q84W41 854-865) [GST-GLR3.6-S861/862A (GST-fused peptide fragment)]

More lines, now with the values behind:

B2: GLR3.6-YFP^N (protein, UniProt Q84W41 26-903)
chain: T1 sequence
binding [2]: binds | binding [1]: binds | binding [3]: binds

B4: GLR3.6-S861/862A-YFP^N (protein, UniProt Q84W41 26-903)
chain: T1 sequence with S836A, S837A
binding [2]: no binding | binding [3]: no binding

B6: GLR3.6-S862A-YFP^N (protein, UniProt Q84W41 26-903)
chain: T1 sequence with S837A
binding [3]: binds
